Reference: PubChem BioAssay AID1671194 (National Center for Advancing Translational Sciences (NCATS), 2021)
The campaign covered roughly 140,000 compounds. About 240 (0.17%) were called active. Inconclusive results, whose numbers are uncertain, are shown with a selection of clear calls. The call rests on the fitted dose curve; in most records, active means well fitted inhibition curve with a large enough effect; inconclusive means small, poorly fitted or top-dose-only effect; inactive means no such curve, though single readings can be large or run the other way. A potency beside an inconclusive call is a rough fit, not a confirmed value.

experiment: Primary qHTS assay for inhibitors of alpha-synuclein gene (SNCA) expression; settings: HEK-293 SNCA-luciferase knock-in, luminescence, 24 h; activity change, negative = inhibition: at 57.2 µM (top of the series) unless noted; further: nearly all actives have a fitted effect of over 45% in size;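 on activity change, negative = inhibition: plate controls were DMSO cells for no effect and cell-free wells for full effect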
Potency means the concentration at half of the fitted maximal effect; tags describe the fitted curve by direction and shape.

| Compound | Potency | activity change, negative = inhibition |
| --- | --- | --- |
| CC(C)CN(CCCNC(=O)CN1C(=O)COc2ccc(S(=O)(=O)N3CCCCCC3)cc21)CC(C)C | active: 28.2 µM | – |
| CN1CCOc2c(C(=O)NCc3cnn(C)c3)cc(-c3ccc(CO)cc3)cc21 | – | inactive: 3.08% [at 87.6 µM] |
| COCC(=O)NC[C@@H]1C=C(C)[C@H](Cc2nc3ccc(Cl)cc3[nH]2)C[C@H]1C(C)C | inconclusive: 56.2 µM [inhibitor, single point] | – |
| O=C(Cn1nc2n(c1=O)CCCC2)Nc1ccc2c(c1)OCCO2 | – | inactive: 87.6% |
| O=C(Nc1ccccc1)N1CCCC1C(=O)N1CCCC1c1nc2ccncc2[nH]1 (stereo not given) | – | inactive: -28.9% |
| Cc1cccc2c1-c1sc(C(=O)N3CCN(c4ccccc4)CC3)cc1CO2 | inconclusive: 2.51 µM [inhibitor, single point] | – |
| COc1ccc(-c2noc(-c3nnn4c3COC(c3ccc(Cl)cc3)C4)n2)c(OC)c1 (stereo not given) | inconclusive: 3.16 µM [inhibitor, single point] | – |
| CCOc1ccccc1CNC(=O)Cc1ccc(NC(=O)N2CCCCc3ccccc32)cc1 | inconclusive: 39.8 µM [inhibitor, single point] | – |
| COc1ccc(Nc2nc(-c3cccc(Cl)c3)c3c(n2)-c2ccccc2OC3)cc1 | inconclusive: 17.8 µM [inhibitor, partial curve, poor fit] | – |
| O=C(NCC(=O)N1CCC(c2ccccc2)CC1)c1ccc(-c2cccc(C(F)(F)F)c2)cc1 | inconclusive: 8.91 µM [inhibitor, single point] | – |
| NC(=O)CN1CC2(CCC1=O)CCN(CC1CCCCO1)CC2 (stereo not given) | inconclusive: 8.91 µM [inhibitor, single point] | – |
| Cc1ccnc(CC(C)N(C)C(=O)c2cc(-c3cnn(C)c3)nc3ccccc23)c1 (stereo not given) | – | inactive: -1.81% |
| CCCCCCCC/C=C\CCCCCCCC(=O)NCCc1ccc(O)c(O)c1 | inconclusive: 5.62 µM [inhibitor, full curve, poor fit] | – |
| O=C(Nc1ccc(F)cc1F)c1cc(-c2ccc[nH]2)n[nH]1 | – | inactive: 203% |
| CC1CCN(CC2CCCCCN2C(=O)Nc2ccc3c(c2)OCCO3)CC1 (stereo not given) | – | inactive: 40.8% |
| CCc1ccc(CNC(=O)c2cc3n(n2)CC(c2ccc4c(c2)OCO4)OC3)cc1 (stereo not given) | – | inactive: -3.59% |
| O=C(Cc1cccc(F)c1)N1CC(CNC(=O)N2CCCC2)C2(CCOCC2)C1 (stereo not given) | inconclusive: 39.8 µM [inhibitor, partial curve, poor fit] | – |
| CCOC(=O)c1c(C)n(-c2ccccc2)c2ccc(OC(=O)c3ccccc3NC(=O)C(C)C)cc12 | inconclusive: 39.8 µM [inhibitor, single point] | – |
| O=C(C1CCCN1Cc1ccc(-c2cncnc2)cc1)N1CCCC1 (stereo not given) | – | inactive: 9.37% |
| Cc1nn(CC(=O)NCc2ccc(F)cc2)c2ccccc12 | inconclusive: 3.16 µM [inhibitor, single point] | – |
| O=C(NC1CCCN(c2cc(-c3ccc(Cl)cc3)[nH]n2)C1)c1cccnc1 (stereo not given) | – | inactive: -4.16% |
| O=C(C1CCCC1)N1CC2(CCN(Cc3cccnc3)CC2)Cc2ccccc21 | – | inactive: -20.7% |
| COc1ccc(C(=O)NCCn2cccc2-c2nc(-c3ccccc3)no2)cc1 | – | inactive: 24.8% |

| Compound | Potency | activity change, negative = inhibition |
| --- | --- | --- |
| CC1=C[C@@H](CNC(C)C)[C@H](C(C)C)C[C@H]1Cc1nnc(C(C)(C)C)o1 | – | inactive: 2.06% [at 87.6 µM] |
| CC(C)NCC1(COc2ccc(C(F)(F)F)cn2)C[C@@H](O)[C@@H](O)C1 (stereo not given in full) | inconclusive: 12.6 µM [inhibitor, single point] | – |
| CCOC(=O)c1ccc(N2C(=O)c3[nH]nc(-c4ccc(C)cc4)c3C2c2ccc(O)c(OCC)c2)cc1 (stereo not given) | inconclusive: 22.4 µM [inhibitor, partial curve, poor fit] | – |
| COCCCN1CC2(CCN(Cc3ccc4c(c3)CC(C)O4)CC2)CC1=O (stereo not given) | inconclusive: 39.8 µM [inhibitor, partial curve, poor fit] | – |
| COc1ccc2c(C)c(C(=O)N(C)Cc3csc(C(C)C)n3)oc2c1 | – | inactive: 2.74% |
| Cc1nnnn1CC(=O)NCc1cccnc1N(C)CCc1ccccn1 | – | inactive: -9.9% |
| Cc1cccc(OCCSc2nc3ccccc3n2CC(=O)N2CCOCC2)c1 | inconclusive: 2.51 µM [inhibitor, single point] | – |
| COc1ccccc1NC(=O)CSc1nnc(-c2ccccc2C)o1 | inconclusive: 39.8 µM [inhibitor, single point] | – |
| Cc1ccc(NC(=O)N2CC(C(=O)N(C)C)C3(CCOCC3)C2)cc1 (stereo not given) | – | inactive: 11.8% |
| Cc1nc(C2CC23CCN(S(=O)(=O)c2cccnc2)CC3)no1 (stereo not given) | – | inactive: -7.12% |
| COc1cccc(-c2cn3cc(C(=O)N4CCOCC4)nc3s2)c1 | active: 12.6 µM | – |
| CN(C(=O)Cc1ccc(F)cc1)C1CCc2ccccc21 (stereo not given) | inconclusive: 56.2 µM [inhibitor, single point] | – |
| CC(C)C(=O)Nc1ccc([C@H]2OCC(=O)N(Cc3ccccc3)[C@@H]2CO)cc1 | inconclusive: 56.2 µM [inhibitor, single point] | – |
| COc1ccc2c(c1)CC(NC(=O)Nc1cc(Cl)ccc1OC)CO2 (stereo not given) | inconclusive: 39.8 µM [inhibitor, single point] | – |
| O=C(NCc1ccccc1)c1cnc2n1CCN(Cc1cccs1)CC2 | inconclusive: 56.2 µM [inhibitor, single point] | – |
| CC(=O)c1ccc(N2CCN(S(=O)(=O)c3ccc4c(c3)CC(C)N4C(=O)C3CCC3)CC2)cc1 (stereo not given) | – | inactive: -1.89% |
| CCN(CCNC(=O)C1Cn2cccc2C(=O)N1C)Cc1ccccc1 (stereo not given) | – | inactive: -18.8% |
| COc1ccc(CC(=O)NCc2cccc(SC)c2)cc1 | inconclusive: 5.62 µM [inhibitor, single point] | – |
| Cc1cccc(-c2noc([C@@H]3Cc4nc[nH]c4CN3C(=O)Nc3cccc(F)c3)n2)c1 | – | inactive: -26.1% [at 87.6 µM] |
| O=C(NCCn1cc(SCc2ccc(F)cc2)c2ccccc21)c1c(F)cccc1F | inconclusive: 39.8 µM [inhibitor, single point] | – |
| Cc1ccc(C2c3c(-c4ccccc4O)n[nH]c3C(=O)N2CCCO)cc1 (stereo not given) | inconclusive: 39.8 µM [inhibitor, single point] | – |
| Cc1nc(N2CCC(NC(=O)c3nn(C)c4ccccc34)CC2)cc(C(F)(F)F)n1 | inconclusive: 14.1 µM [inhibitor, partial curve, poor fit] | – |
